The campaign covered roughly 360,000 compounds. About 17,000 (4.7%) were called active. The inconclusive results got no clear call from the source; some entries with a clear call stand among them for comparison. Rule as the data show it: active = activity change below about -50%; inconclusive = mostly about -30% to -49%; inactive = weaker than that.
test: qHTS for Inhibitors of Inflammasome Signaling: IL-1-beta AlphaLISA Primary Screen; conditions: THP-1 LPS/ATP IL-1B secretion, 16 h; at 57.5 µM, stronger effect = lower value
Method in brief: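 THP-1 cells pretreated 1 hr with compounds (up to 57.5 uM final), then stimulated with LPS (250 ng/mL final) plus ATP (1.25 mM final); secreted IL-1B measured by AlphaLISA after 16 hr, decreased signal indicating inhibition.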
% is scaled to controls: 0 for no effect and ±100 for the full control effect.

SMILES | activity change
CSc1ccc(CN(C)C(=O)C23CC4CC(CC(Cl)(C4)C2)C3)cc1 | inconclusive: -38.7%
CCN1C(=O)[C@H]2[C@@H](c3ccc(-c4cccc(Cl)c4)c(OC)c3)N[C@@](Cc3ccccc3)(C(=O)OC)[C@H]2C1=O | inconclusive: -39.2%
CCC(=O)N(C)C[C@H]1Oc2cc(Br)ccc2S(=O)(=O)N([C@@H](C)CO)C[C@H]1C | inactive: 8.68%
Cc1cccc(CN2C(=O)/C(=C\c3ccc(C(=O)NCCN4CCOCC4)cc3)Sc3ccccc32)c1 | inactive: -7.5%
Nc1nc(N)c(N=Nc2ccccc2)c(=O)[nH]1 | inconclusive: -33.5%
COC(=O)c1c(NC(=O)Cc2ccccc2)sc2c1CC(C)(C)NC2(C)C | inconclusive: -30.1%
CCOc1ccc(C(=O)Nc2cccc(-c3nc4ccccc4[nH]3)c2C)cc1[N+](=O)[O-] | inconclusive: -34%
Cc1cc(C)c(C#N)c(SCCS(=O)(=O)c2ccc(Cl)cc2)n1 | active: -76.3%
NC(=O)NC(=O)C(Nc1ccc2c(c1)CCC2)c1ccccc1 (stereo unspecified) | inconclusive: -32.3%
CCOC(=O)c1cc(-c2ccc(OC)cc2)nc2c1c(C)nn2CCC(N)=S | inconclusive: -43.1%
CC(C)NC(=O)N1CCCN(c2nc3ccc(Cl)cc3s2)CC1 | inconclusive: -32%
O=C(Nc1cccnc1)c1cc2cc(Br)ccc2o1 | inconclusive: -35.1%
O=C(CC1C[C@H](C(=O)N2CCCCC2)[C@@]2(CCc3ccccc3)c3[nH]c4ccccc4c3CCN2C1=O)NCc1cccc(C(F)(F)F)c1 (stereo partly specified) | inconclusive: -48.2%
COc1cc(NC(=S)N2c3ccccc3CC2C)cc(OC)c1 (stereo unspecified) | inactive: 31.1%
O=C1c2ccccc2-c2ccc(C(=O)N3CCCCC3)cc21 | inconclusive: -38.6%
CC(NS(=O)(=O)c1ccc(Br)cc1)C(c1cccs1)N1CCOCC1 (stereo unspecified) | inactive: 10.3%
COCCN(C(=O)CCC(=O)Nc1ccccn1)C(C(=O)NC1CCCC1)c1ccc(OC)cc1 (stereo unspecified) | inactive: 1.33%
Cc1ccc(SCc2c(C(=O)N/N=C/c3ccc(C)o3)nnn2-c2nonc2N)cc1 | inconclusive: -42.7%
O=C(Nc1cccc(S(=O)(=O)Nc2ccccc2F)c1)c1ccc2ccccc2n1 | active: -50.9%
CCOC(=O)N1CCC(N2Cc3cccc(C(=O)Nc4c(C)cccc4CC)c3C2=O)CC1 | active: -55.1%
CC(C)(C)c1ccc(C(=O)N/N=C/c2cccc(Cl)c2)cc1 | inconclusive: -32.2%
CN(C)c1ccc(C2CC(c3cccc(NS(C)(=O)=O)c3)=NN2C(=O)c2ccccc2)cc1 (stereo unspecified) | active: -58.4%

SMILES | activity change
CC(=O)Nc1nc2cc3c(cc2s1)OCCO3 | inconclusive: -34.3%
CCN1CCCC(OC(=O)c2cc(-c3ccc(C)cc3)nc3ccccc23)C1 (stereo unspecified) | active: -147%
Cc1ccc(N2C(N)=C(C#N)C(c3cccs3)C3=C2CC(C)(C)CC3=O)cc1 (stereo unspecified) | inconclusive: -31%
CC(=O)Oc1ccccc1C(=O)Oc1ccc(/C=N/n2cnnc2)cc1 | inconclusive: -39.3%
N#C/C(=C\c1ccc(N2CCOCC2)cc1)c1ccccc1 | inconclusive: -49.7%
O=C(c1ccc(Cl)c(S(=O)(=O)N2CCOCC2)c1)N1CCN(c2ccccn2)CC1 | inactive: 5.31%
COC(=O)C1(C(=O)OC)c2ccccc2CN(S(=O)(=O)c2ccc(C)cc2)C1CC(C)=O (stereo unspecified) | inactive: 14.5%
O=C(NCc1ccc2c(c1)OCO2)c1ccc2c(c1)S(=O)(=O)c1ccccc1C2=O | inconclusive: -40%
CC(=O)c1ccc(N2CCN(S(=O)(=O)c3ccc4ccccc4c3)CC2)cc1 | inconclusive: -38.8%
O=C(COc1ccc(F)cc1F)Nc1cccnc1 | inactive: -29.2%
Cc1ccccc1S(=O)(=O)NCc1cccnc1 | inactive: 0%
CN(CC(=O)Nc1ccc(Cl)c(C(F)(F)F)c1)C(=O)C1CC(=O)N(CCc2ccccc2)C1 (stereo unspecified) | inconclusive: -35.8%
CC(Oc1cc2oc(=O)c3c(c2cc1Cl)CCC3)C(=O)NCCN1CCOCC1 (stereo unspecified) | inconclusive: -49.8%
O=c1oc2ccccc2cc1N1CCOCC1 | inactive: 18.9%
Cc1ccc2cc(C#N)c(N3CCN(C(=O)c4ccccc4)CC3)nc2c1 | inconclusive: -43.1%
CCc1ccc(-c2c(C)sc(NC(C)=O)c2C(N)=O)cc1 | inconclusive: -33.8%
N=c1c2ccccc2nc2n1CCCCCCCCCCC2 | active: -86.6%
Cc1ccccc1OCC(O)Cn1c2ccccc2c2ccccc21 (stereo unspecified) | active: -84.9%
Cc1ccc(/C=N/N2CCN(c3ccccc3)CC2)cc1 | inconclusive: -36.9%
Cc1ccc(Nc2nc(NCc3ccco3)c3ccccc3n2)cc1 | active: -109%
CN=c1scc(-c2ccc([N+](=O)[O-])cc2)n1/N=C/c1ccco1 | inactive: -9.56%
CC(C)(C)c1ccc(-c2nc(C#N)c(NCCCn3ccnc3)o2)cc1 | active: -94.8%

SMILES | activity change
COc1ccc(-c2cn(-c3ccc(C)cc3)c(=O)n2CC(=O)Nc2ccc(OC)cc2OC)cc1 | inconclusive: -43.8%
CC1(C)Cc2c(sc(NC(=O)c3ccc(C(=O)c4ccccc4)cc3)c2C(N)=O)C(C)(C)N1 | active: -102%
COc1ccc(CN=C2NC(=O)CC(C(=O)Nc3ccc([N+](=O)[O-])cc3C)S2)cc1 (stereo unspecified) | inconclusive: -30.3%
CCC(CNc1cc(OC)cc2cccnc12)NC1CCCCC1 (stereo unspecified) | inconclusive: -35.9%
Cc1cc(NC(=O)CCN2CCN(C/C=C/c3ccccc3)CC2)ccc1Br | active: -81.6%
O=C(NCc1cccnc1)C1CCN(S(=O)(=O)c2cc([N+](=O)[O-])ccc2Cl)CC1 | inactive: 8.29%
CC(=O)Nc1ccc2nc(-c3ccc(Br)o3)[nH]c2c1 | inconclusive: -33%
COc1ccc(CCNC(=O)c2ccc(Cl)c(S(=O)(=O)N(C)c3ccccc3)c2)cc1 | inconclusive: -44.6%
c1ccc2c(c1)CCOC2CNCCCN1CCCCC1 (stereo unspecified) | inconclusive: -34.9%
CCCCCOc1ccc(/C(C)=N/NC2=NCCN2)cc1 | active: -65.6%
Cc1cccc(CN2[C@H](COCc3ccccc3)C=CS2(=O)=O)c1 | inconclusive: -32.5%
CCCCn1nc2cc(C(=O)NCc3ccccc3)ccc2c1OCC | inconclusive: -40.7%
Nc1ccccc1S(=O)(=O)C(F)F | inactive: 30.9%
O=C(CO/N=C/c1ccc(OC(F)F)cc1)NCc1ccco1 | inactive: 11.8%
CS(=O)(=O)N1CCN(c2ccccc2NC(=O)c2ccc(Br)o2)CC1 | inconclusive: -46.5%
C=CCCC(=O)N1CCCC(Cc2cccc(Cl)c2)(C(=O)OCC)C1 (stereo unspecified) | active: -55.6%
CCc1ccc(-n2cc(-c3ccc([N+](=O)[O-])cc3)[nH]c2=S)cc1 | inactive: -25.9%
Cc1cc(NC(=O)c2ccco2)ccc1NC(=O)c1ccco1 | inactive: -9.84%
NS(=O)(=O)c1ccc(NNC(=O)c2ccc(Br)o2)c([N+](=O)[O-])c1 | inconclusive: -45.4%
COc1ccc(-n2ncc3c(NCC4CCCO4)ncnc32)cc1 (stereo unspecified) | inconclusive: -32.2%
O=C(COc1ccccc1)N1CCN=C1SCc1ccc(F)cc1 | active: -97.2%
Cc1ccnc(NC(=O)c2ccc(Cl)c(NC(=O)c3ccccc3C)c2)c1 | inactive: 12.4%

SMILES | activity change
CSc1ccc(CC(=O)N2CCC(n3nccc3NC(=O)C3CC3)CC2)cc1 | inactive: 0%
O=C(Nc1nnc(CC2=CCCCC2)s1)Nc1ccccc1F | inactive: 52.2%
CC(C)=NNc1nc2sc3c(c2c(=O)[nH]1)CC(C)(C)OC3 | inactive: 0%
Cc1ccccc1OCCn1cc(C(=S)N2CCN(C)CC2)c2ccccc21 | inconclusive: -35.6%
CCOC(=O)c1sc2nc(SCC(=O)N(CC)CC)n(CCCN3CCCC3=O)c(=O)c2c1C | inconclusive: -43.3%
COc1ccc(C=CC(=O)C=CC=Cc2ccccc2)cc1 | active: -51.7%
C[C@@]12C(=O)N(Cc3ccc(F)cc3)CC(=O)N1[C@H]1c3cc(Cl)ccc3OC[C@@H]1[C@@H]2c1ccccc1 | inconclusive: -34.2%
O=C(CN1C(=O)C2CCCCC2C1=O)OCn1nnc2ccccc2c1=O (stereo unspecified) | inconclusive: -32%
CCN1C(=O)[C@H]2[C@@H](c3ccc(-c4ccc(F)cc4)cc3)N[C@@](CC(C)C)(C(=O)OC)[C@H]2C1=O | active: -65.8%
O=C(Nc1nc2c(s1)CN(Cc1ccccc1)CC2)c1c(F)cccc1F | inconclusive: -47%
COc1ccc(CNC(=O)COc2cc3c(c4oc(=O)cc(C)c24)CCC(C)(C)O3)cc1 | inconclusive: -41.9%
COc1ccc(C(=O)N2CC3(CC(c4cccc(NC(=O)COc5ccc(Cl)cc5)c4)=NO3)C[C@@H]2C(N)=O)cc1 (stereo partly specified) | active: -57.2%
CCC(CC)COC(=O)C1=C(C)NC(=O)NC1c1ccc(N(C)C)cc1 (stereo unspecified) | inconclusive: -31%
Cc1cc2c(NCc3ccccc3)ncnc2s1 | inconclusive: -49%
CCCCOc1ccc(S(N)(=O)=O)cc1 | inactive: 32.6%
COc1cc(CCN(C(C)=O)C2C(=O)Nc3ccccc3N=C2c2ccc3c(c2)OCO3)cc(OC)c1 (stereo unspecified) | inconclusive: -32.5%
C=CC(=O)N1c2ccccc2Sc2ccc(NC(=O)OCC)cc21 | active: -112%
O=C(OC1CCOC1=O)c1ccccc1C(=O)c1ccc(Cl)c([N+](=O)[O-])c1 (stereo unspecified) | inactive: -26.6%
O=[N+]([O-])c1ccc(C(=S)N2CCN(c3ccc(F)cc3)CC2)cc1 | inconclusive: -40.3%
Cc1ccc(CN2CCC(CNS(=O)(=O)c3ccc(-c4ccc(=O)[nH]n4)s3)CC2)cc1 | inconclusive: -33.8%

— PubChem BioAssay AID743279 (National Center for Advancing Translational Sciences (NCATS), 2014)
